Experimental data from PMC4336329 (PLoS ONE, 2015).
Screen size: about 310,000 compounds; about 2,200 (0.71%) showed an effect of 50% or more. Effects have a minus sign here. The list shows a part of the results.

Each molecule was assayed against human ether-à-go-go-related gene (hERG) potassium channel (human, UniProt Q12809) (assay: primary screen, population patch clamp on CHO cells stably expressing hERG).
Sequence of human ether-à-go-go-related gene (hERG) potassium channel (Q12809 whole entry, looked up): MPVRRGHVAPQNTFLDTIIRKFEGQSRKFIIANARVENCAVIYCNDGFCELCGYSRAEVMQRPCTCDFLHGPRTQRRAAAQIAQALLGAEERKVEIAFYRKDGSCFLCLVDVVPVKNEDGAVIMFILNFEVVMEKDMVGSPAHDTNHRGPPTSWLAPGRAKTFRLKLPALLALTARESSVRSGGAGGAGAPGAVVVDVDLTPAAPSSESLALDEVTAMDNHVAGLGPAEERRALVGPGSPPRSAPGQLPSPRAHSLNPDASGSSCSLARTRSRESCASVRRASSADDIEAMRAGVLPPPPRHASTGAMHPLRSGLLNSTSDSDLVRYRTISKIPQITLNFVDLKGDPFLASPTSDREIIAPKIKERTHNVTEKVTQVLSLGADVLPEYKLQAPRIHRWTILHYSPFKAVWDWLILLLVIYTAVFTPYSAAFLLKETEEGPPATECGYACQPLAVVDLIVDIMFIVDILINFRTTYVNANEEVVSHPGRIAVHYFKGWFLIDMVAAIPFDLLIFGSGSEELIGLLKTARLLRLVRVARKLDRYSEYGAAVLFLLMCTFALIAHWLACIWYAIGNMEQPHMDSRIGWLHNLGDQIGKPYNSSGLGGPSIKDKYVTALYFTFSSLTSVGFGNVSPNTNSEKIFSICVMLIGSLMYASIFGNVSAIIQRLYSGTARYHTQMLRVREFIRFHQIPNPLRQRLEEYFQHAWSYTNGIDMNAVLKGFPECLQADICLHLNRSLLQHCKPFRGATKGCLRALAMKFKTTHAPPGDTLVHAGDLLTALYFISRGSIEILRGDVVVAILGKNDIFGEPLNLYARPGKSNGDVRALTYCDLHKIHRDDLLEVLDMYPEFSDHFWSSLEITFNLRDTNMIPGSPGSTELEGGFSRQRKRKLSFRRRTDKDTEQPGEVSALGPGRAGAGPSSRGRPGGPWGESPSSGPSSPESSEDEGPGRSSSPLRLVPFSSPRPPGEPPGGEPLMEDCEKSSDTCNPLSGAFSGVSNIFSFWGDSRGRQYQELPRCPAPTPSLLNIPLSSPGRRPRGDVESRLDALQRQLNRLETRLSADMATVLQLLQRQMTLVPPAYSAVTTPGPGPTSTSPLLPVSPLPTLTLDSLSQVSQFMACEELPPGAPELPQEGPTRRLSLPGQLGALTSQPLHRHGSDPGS

SMILES | hERG current change (%, negative = inhibition) at 1uM [%]
CCOC(=O)Nc1ccc2c(c1)Nc1ccccc1S2 | 9.07
Cc1cc(C)c2c(CC(=O)Nc3ccc(Cl)cn3)coc2c1 | -2.88
O=C(CCC(=O)Nc1ccc(F)cc1)N/N=C/c1ccc(O)cc1O | 7.85
CCOC(=O)c1c(NC(=O)C2CCN(S(=O)(=O)c3ccc(Cl)cc3)CC2)sc2c1CCCC2 | 7.04
COc1cc(/C=N/NC(=O)c2ccncc2)ccc1OCC(=O)Nc1cccc([N+](=O)[O-])c1 | 18.7
CSC(=S)N/N=C(\C)c1ccccc1 | 12
CCOc1ccc(-c2nc(CN3CCCCC3CCn3cccn3)c(C)o2)cc1 (stereo not shown) | -24.9
O=C(O)CCN(CCC(=O)O)S(=O)(=O)c1ccccc1 | 10.7
Cc1ccc(F)cc1NC(=O)CSCc1c(C)noc1C | 5.95
CC(C)c1cc(CNC(=O)C2CCC(=O)N(Cc3ccccc3F)C2)on1 (stereo not shown) | 14.8
CCCc1c(C(=O)N/N=C(/C)c2ccncc2)nnn1-c1nonc1N | 11.4
CCOCCCNC(=O)c1ccc2c(=O)n(Cc3ccc4c(c3)OCO4)c(=S)[nH]c2c1 | 23.3
CC1CC(N(C(=O)c2ccco2)c2ccccc2)c2ccccc2N1 (stereo not shown) | 11.7
CCc1cccc(OCC(=O)Nc2ccccc2N2CCCC2)c1 | 5.49
Cc1cc(NC(=O)C(C)Oc2ccccc2)no1 (stereo not shown) | 14
CCOC(=O)c1ccc(NS(=O)(=O)c2cc(C)ccc2OC)cc1 | -11.5
Clc1ccc(-n2nnnc2SCc2cn3ccccc3n2)cc1 | 14.9
COCCC(=O)Nc1ccc2c(c1)CN(C(=O)CCOC)CC2 | 11.3
CN(c1ccc(C(=O)N2CCCCCC2)cc1)S(=O)(=O)c1ccc(Cl)cc1 | -8.67
O=C(/C=C/c1ccco1)N1CCN(S(=O)(=O)/C=C/c2ccccc2)CC1 | 0.172
Cc1cn2c(=O)c(C(=O)NCc3ccc4c(c3)OCO4)cnc2s1 | 10.7
OC(COc1ccccc1)CN1CCOCC1 (stereo not shown) | 14.3
Cc1ccc(NC(=O)Cc2nc(COC(=O)C(C)NS(=O)(=O)c3ccc(C)cc3)cs2)cc1 (stereo not shown) | -1.08
CCN(C(=O)CSc1nnc(C)n1-c1ccccc1)C1CCS(=O)(=O)C1 (stereo not shown) | 13
COc1ccc(NS(=O)(=O)c2ccc(OC)c(NC(=O)CCC3CCCC3)c2)cc1 | 0.976
